# Results from PubChem BioAssay AID662 (National Center for Advancing Translational Sciences (NCATS), 2007).
# Hit rate of the full screen: of about 71,000 compounds, about 1,800 (2.5%) were called active. This list was built around the results that the source calls inconclusive (neither active nor inactive); the mix of calls is not that of the screen. The call rests on the fitted dose curve; in most records, active means well fitted activation curve with a large enough effect in the signal ratio, with a control signal flat (not every such curve was filed as active); inconclusive means small, poorly fitted or top-dose-only effect, or effect the other way, or a change in a side signal; inactive means flat fitted curve, though single readings scatter; the % refers to the signal ratio. Where the call is inconclusive, the potency comes from a doubtful curve fit.
# Test: Cell signaling CRE-BLA (Fsk stim); on activity change, negative = inhibition: % of control where 0% means no effect
# Settings: CHO CRE-bla reporter (cAMP response element driving beta-lactamase), forskolin EC10, beta-lactamase ratio; activity change, negative = inhibition: at 38.2 µM (top of the series) unless noted
# How it was run: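 Beta-lactamase reporter under a cAMP responsive element in CHO cells; compounds tested in titration series against EC10 NKH 477, 3 h at 37 °C. Read-out: CCF4 FRET ratio 460nm/530nm (excitation 405nm) giving %Activity, fitted to AC50.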
# Potency means the concentration at half of the fitted maximal effect; tags describe the fitted curve by direction and shape.
Compound,Potency,"activity change, negative = inhibition"
COC(=O)c1cc(-c2ccc3c(c2)OCO3)nc2ccccc12,"inconclusive: 12.6 µM [rising, single point]",
CCOC(=O)c1cnc2c(C)cccc2c1NCc1ccco1,"inconclusive: 12.6 µM [rising, partial curve]",
CCOC(=O)c1ccccc1NC(=O)CC1Nc2ccccc2NC1=O (stereo unspecified),"inconclusive: 12.6 µM [rising, partial curve]",
COc1ccc2oc(=O)c(C(=O)N3CCN(c4ccccc4)CC3)cc2c1,"inconclusive: 0.126 µM [falling, single point]",
CN1CCN(c2ncc3ncc(=O)n(Cc4cccs4)c3n2)CC1,"inconclusive: 20 µM [rising, single point]",
N#Cc1cccc(-c2nc(NCCN3CCOCC3)c3ccccc3n2)c1,active: 10 µM,
CSc1nnc2c3ccccc3n(CCc3ccccc3)c2n1,active: 0.0158 µM,
CCOC(=O)N1CCN(C(=O)CSc2nc3c(cnn3-c3ccc(C)cc3)c(=O)[nH]2)CC1,"inconclusive: 12.6 µM [rising, partial curve]",
COc1cccc(-c2cc(C(=O)N3CCc4ccccc4C3)no2)c1,,inactive
O=C(CCC1CCCC1)N1CCN(S(=O)(=O)Cc2ccccc2)CC1,,inactive
CN1CCN(c2ccc(Cl)cc2NC(=O)c2cccc(S(=O)(=O)N(C)C)c2)CC1,active: 5.01 µM,
c1coc(Cn2c(SCc3nc4ccccc4[nH]3)nnc2-c2cnccn2)c1,,inconclusive: -1.26%
Cc1ccc(CN(C(=O)Cn2nnc3ccccc32)C(C(=O)NCc2ccco2)c2cccs2)cc1 (stereo unspecified),"inconclusive: 2.51 µM [falling, partial curve]",
CSc1nc2cc(F)c(F)cc2n1C,"inconclusive: 12.6 µM [rising, single point]",
COc1ccccc1C(=O)n1nc(-c2ccco2)nc1N,,inconclusive: 34.7%
Cc1ccsc1C1NC(=O)c2ccccc2N1 (stereo unspecified),,inactive
O=S(=O)(c1cccc(-c2cn3cccnc3n2)c1)N1CCOCC1,,inconclusive: 21.5%
COc1ccc(NC(=O)Cn2cnc3c(cnn3-c3ccc(C)c(C)c3)c2=O)c(OC)c1,,inactive
Cn1c(SCC(=O)c2ccc(F)cc2)nnc1-c1cnccn1,,inactive
CN(C)C(=O)c1ccc(-c2ccc3ncnc(NC4CC4)c3c2)cc1,,inconclusive: 20.5%
O=C1CC(Sc2nnnn2C2CCCCC2)C(=O)N1c1ccccc1 (stereo unspecified),"inconclusive: 5.01 µM [rising, single point]",

Compound,Potency,"activity change, negative = inhibition"
O=C(C1CCCN(S(=O)(=O)c2ccccc2)C1)N1CCN(c2ncccn2)CC1 (stereo unspecified),,inactive
Cn1nc(C(=O)Nc2cccnc2)c2ccccc2c1=O,active: 10 µM,
CN(Cc1c(F)cccc1Cl)c1ccc(S(=O)(=O)N2CCOCC2)cn1,,inconclusive: 22.7%
O=C(c1cccc(C(=O)N2CCN(c3ccccc3F)CC2)c1)N1CCN(c2ccccc2F)CC1,,inconclusive: -15.1% [at 7.6 µM]
CC(C)(C)C(=O)OCOC(=O)[C@@H]1N2C(=O)[C@@H](NC(=O)[C@H](N)c3ccccc3)[C@H]2SC1(C)C,"inconclusive: 6.31 µM [falling, partial curve]",
CCOC(=O)C1CCN(Cc2nc3ccccc3c(=O)n2-c2ccc(OCC)cc2)CC1,"inconclusive: 10 µM [rising, partial curve]",
Cc1ccc(-c2nnc(SCC(=O)Nc3ccccc3F)o2)cc1,,inactive
Cc1ccc(CN2CCN(Cc3ccc(C)o3)[C@@H](C)C2)o1,,inactive: 5.37% [at 7.6 µM]
Cc1cc(=O)oc2cc(NC(=O)C3COc4ccccc4O3)ccc12 (stereo unspecified),,inconclusive: 23.8%
O=c1c(-c2cccs2)nc2cnc(N3CCOCC3)nc2n1-c1ccccc1,"inconclusive: 2 µM [rising, full curve]",
Cc1cc(Cl)ccc1OCCCC(N)=O,"inconclusive: 1.58 µM [falling, partial curve, poor fit]",
Cn1c(CNC(=O)Nc2cccc(Cl)c2)nnc1SCc1ccccc1,,inconclusive: -16.7%
Cc1noc(C)c1-c1nc(N2CCOCC2)c2ccccc2n1,"inconclusive: 1.58 µM [rising, partial curve]",
Cn1c(SCc2nc(-c3ccc(Cl)cc3)no2)nnc1-c1ccco1,,inactive
CCn1c2c(c3cc(Cl)ccc31)CCCC2=O,"inconclusive: 15.8 µM [rising, single point]",
CCN(CC)CCCNC(=O)c1nn(-c2ccccc2OC)c(=O)c2ccccc12,,inconclusive: 6.13%
O=C(NCN1CCN(c2ccccc2F)CC1)c1ccccc1,,inconclusive: -16%
CCCn1nc(NC(=O)c2ccncc2)c2cc3ccccc3nc21,active: 3.98 µM,
O=C(OCN1C(=O)c2ccccc2C1=O)c1ccco1,,inconclusive: 27.5% [at 7.6 µM]
COC(=O)c1[nH]cnc1C(=O)c1ccccc1,,inconclusive: -11%
O=C(COC(=O)c1ccccc1NC(=O)c1ccco1)Nc1ccc2c(c1)OCO2,,inactive

Compound,Potency,"activity change, negative = inhibition"
CCNC(=O)c1c(O)c2ccccc2[nH]c1=O,"inconclusive: 10 µM [rising, single point]",
COc1ccccc1C(=O)NCCC(=O)N1CC(=O)Nc2ccccc21,"inconclusive: 3.98 µM [falling, single point]",
O=c1c(-c2ccccc2)nc2cnc(Nc3ccccc3)nc2n1C[C@H]1CCCO1,active: 1.26 µM,
CC(=O)NC(Cc1ccccc1C)C(=O)NC1CCN(c2c3c(nc4ncnn24)CCC3)CC1 (stereo unspecified),,inactive
CCCCn1c(SCC(=O)NCCc2ccc(OC)c(OC)c2)nc2c1c(=O)n(C)c(=O)n2C,,inconclusive: 21.6%
CCc1sc(C(=O)Nc2ccsc2C(=O)OC)cc1Br,"inconclusive: 0.2 µM [rising, full curve, poor fit]",
CNC/C(Cl)=N/S(=O)(=O)c1ccc(C)cc1,,inconclusive: -13.6% [at 7.6 µM]
C=CCOc1c(Cl)cc(/C=N/O)cc1OC,,inconclusive: 16.8% [at 7.6 µM]
Cc1nc(N2CCC(C)CC2)c2c(C)c(C(=O)O)sc2n1,"inconclusive: 12.6 µM [rising, partial curve]",
O=C(O)CCSc1nc2ccccc2c(=O)[nH]1,,inconclusive: -4.93%
Clc1ccccc1-c1ccc2ncnc(NCc3cccnc3)c2c1,"inconclusive: 10 µM [rising, single point]",
COc1ccc(-n2c(=O)c(-c3cn(C)c4ccccc34)nc3cncnc32)cc1,,inconclusive: 14.7%
COCCOC(=O)C1=C(C)NC(=O)NC1c1cn(-c2ccccc2)nc1-c1cccs1 (stereo unspecified),,inconclusive: 1.83%
COCCn1nnnc1C(c1cc2cc(C)cc(C)c2[nH]c1=O)N1CCN(c2ccccc2F)CC1 (stereo unspecified),"inconclusive: 25.1 µM [falling, single point]",
Cc1ccnc(NC(=O)COC(=O)C2COc3ccccc3O2)n1 (stereo unspecified),,inconclusive: -5.8%
CCOc1ccc(CN2CCN(c3cc(C)nc4c5c(C)cc(C)nc5nn34)CC2)cc1,,inactive
N#Cc1nc(-c2ccccc2F)oc1N1CCCC1,"inconclusive: 15.8 µM [rising, single point]",
C=C(C)C(C)(C#CCN1CCCC1)OC(C)=O (stereo unspecified),,inconclusive: -6.63%
O=c1c2ccccc2c(C=NCCCN2CCOCC2)c(O)n1Cc1ccccc1,,inactive
COc1ccccc1Nc1nc(N)nc(CN2CCC(Cc3ccccc3)CC2)n1,,inactive
O=C(COC(=O)C1CC2C=CC1C2)NCc1ccco1 (stereo unspecified),"inconclusive: 5.01 µM [rising, single point]",

Compound,Potency,"activity change, negative = inhibition"
CCN(CC)S(=O)(=O)c1ccc2[nH]cc(C(=O)NCCc3ccc(OC)c(OC)c3)c(=O)c2c1,,inconclusive: -0.858%
CCOC(=O)C(CC)n1cnc2c(cnn2-c2ccc(Cl)cc2)c1=O (stereo unspecified),,inconclusive: 19.5%
CCCCn1c(=NC(=O)c2ccc3c(c2)OCO3)c(C#N)cc2c(=O)n3cccc(C)c3nc21,,inconclusive: 28.4%
c1ccc2c(c1)NC1(CCCCC1)n1c-2nc2ccccc21,,inconclusive: 7.56%
COCCn1c(=O)c(-c2cccc(C#N)c2)nc2cnc(OC)nc21,"inconclusive: 12.6 µM [rising, single point]",
COc1ccc(OC)c(NC(=O)CC(Cc2ccccc2OC)C(=O)O)c1 (stereo unspecified),,inconclusive: -7.75%
COc1ccccc1-c1nnc(NC(=O)c2ccc(S(=O)(=O)N(C)C)cc2)o1,,inconclusive: 17.5%
CCOc1ccc(C2=CS/C(=C(\C#N)c3nnc4n3CCCCC4)N2CC)cc1,,inconclusive: -24.7%
Cc1ccsc1C=Nc1ccc(O)cc1,,inconclusive: -22%
N=C1N=C(N)c2cc3ccccc3cc21,,inactive
Nc1cc(OC(=O)c2cccs2)nn1S(=O)(=O)c1ccccc1,,inconclusive: -9.25%
O=C(CCn1c(=S)[nH]c2ccccc2c1=O)N1CCN(c2ccccn2)CC1,"inconclusive: 10 µM [rising, single point]",
CCOc1ccc(NC(=O)N2CCC(n3c(=O)[nH]c4ccccc43)CC2)cc1,,inconclusive: -19.3%
Cn1ccnc1C(O)c1ccco1 (stereo unspecified),,inactive
CCn1c(SCC(=O)O)nnc1C1CCCCC1,,inactive
CCOc1ccc2[nH]c(=O)c(C(c3nnnn3Cc3ccco3)N3CCCC(C)C3)cc2c1 (stereo unspecified),,inconclusive: 24.2%
C=CCNc1nc2c(c(=O)n(C)c(=O)n2C)n1CC,"inconclusive: 10 µM [rising, single point]",
N#Cc1cccc(-c2nc3cnc(N4CCNCC4)nc3n(C3CC3)c2=O)c1,"inconclusive: 12.6 µM [rising, partial curve]",
